Data published in PubChem BioAssay (Tox21).
This list was built around the results that the source calls inconclusive (neither active nor inactive); the mix of calls is not that of the screen. Entries that show only a call come without a potency. A potency beside an inconclusive call is a rough fit, not a confirmed value. Calls of active or inactive are those of the source. The call rests on the fitted dose curve; in most records, active means well fitted cell-killing curve with a large enough effect in the repeat runs; inconclusive means weak or mixed curves, or effect the other way; inactive means flat fitted curve, though single readings scatter.

Assay: Human pregnane X receptor (PXR) small molecule agonists, qHTS cell viability counter screen (AID 1346977); further: nearly all actives have a fitted effect of over 50% in size
Conditions: PXR-Luc HepG2 viability, CellTiter-Fluor, 24 h; series mostly up to 92.4 µM
In short: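 Same-well viability read: CellTiter-Fluor added after 23 hr compound exposure, fluorescence measured 1 hr later. Cells were PXR-Luc HepG2 seeded at 2,000/well in 5% charcoal-stripped FBS medium, rested 5 hr before dosing at 37 C.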
Potency means the concentration at half of the fitted maximal effect; tags describe the fitted curve by direction and shape.

Which Potency does the source give for C[C@@H](C1=C(CCN(C)C)Cc2ccccc21)c1ccccn1 here?
The Potency was inconclusive: 21.1 µM [cytotoxic, partial curve, poor fit].

With COC(=O)c1cc(Cl)cc(Cl)c1 as the molecule, how does the Potency read?
The Potency was “inactive”.

For CCCC1CCOC(C)S1 (configuration not stated), which Potency is on record?
The Potency was “inactive”.

For OC1(c2ccccc2)CCNCC1, which Potency is on record?
Its Potency is “inactive”.

Which Potency does the source give for Cc1ccc2ccccc2n1 here?
Its Potency is “inactive”.

For O=Cc1c2ccccc2c(Cl)c2ccccc12, which Potency is on record?
The Potency was “inactive”.

Which Potency does the source give for CCCCCCCCCOC(=O)CCCCC(=O)OCCCCCCC here?
Its Potency is “inactive”.

For Cc1nc2ccccn2c(=O)c1CCN1CCC(C(=O)c2ccc(F)cc2)CC1, which Potency is on record?
Its Potency is inconclusive: 33.5 µM [cytotoxic].

Which Potency does the source give for CCC(=O)Nc1ccc(O)cc1 here?
Its Potency is “inactive”.

With CC(=O)OCC(=O)[C@@]1(O)[C@H](OC(C)=O)C[C@H]2[C@@H]3CCC4=CC(=O)C=C[C@]4(C)[C@@]3(F)[C@@H](O)C[C@@]21C as the molecule, how does the Potency read?
Its Potency is “inactive”.

Which Potency does the source give for COC(=O)[C@@H](N)Cc1ccc(O)c(O)c1 here?
The Potency was “inactive”.

For Nc1cccc2c(=O)[nH][nH]c(=O)c12, which Potency is on record?
The Potency was “inactive”.

For COc1cc(C(C)(C)C)c(O)c(C(C)(C)C)c1, which Potency is on record?
Its Potency is “inactive”.

For CCC1OCC(COc2ccc(Oc3ccccc3)cc2)O1 (configuration not stated), which Potency is on record?
Its Potency is inconclusive: 61.1 µM [cytotoxic, single point].

For O=C(Oc1ccccc1)c1ccccc1O, which Potency is on record?
The Potency was inconclusive: 61.1 µM [cytotoxic, partial curve, poor fit].

For CC(Cc1cccc(C(F)(F)F)c1)NCCOC(=O)c1ccccc1 (configuration not stated), which Potency is on record?
Its Potency is inconclusive: 26.6 µM [cytotoxic, partial curve, poor fit].

With O=C1Nc2ccc(Cl)cc2[C@@](C#CC2CC2)(C(F)(F)F)O1 as the molecule, how does the Potency read?
Its Potency is inconclusive: 33.5 µM [cytotoxic, single point].
